# Laboratory results published in publication PMC4336329 (PLoS ONE, 2015).
# In all, about 310,000 compounds went through this assay and about 14,000 (4.5%) showed an effect of 50% or more. Effects have a minus sign here. This is one part of the list.
# Biological target: human ether-à-go-go-related gene (hERG) potassium channel (human, UniProt Q12809)
# Test: primary screen, population patch clamp on CHO cells stably expressing hERG
# 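Also: peak tail current of the secondary pulse compared with the same well before compound.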
# Chain of human ether-à-go-go-related gene (hERG) potassium channel (Q12809 whole entry, looked up): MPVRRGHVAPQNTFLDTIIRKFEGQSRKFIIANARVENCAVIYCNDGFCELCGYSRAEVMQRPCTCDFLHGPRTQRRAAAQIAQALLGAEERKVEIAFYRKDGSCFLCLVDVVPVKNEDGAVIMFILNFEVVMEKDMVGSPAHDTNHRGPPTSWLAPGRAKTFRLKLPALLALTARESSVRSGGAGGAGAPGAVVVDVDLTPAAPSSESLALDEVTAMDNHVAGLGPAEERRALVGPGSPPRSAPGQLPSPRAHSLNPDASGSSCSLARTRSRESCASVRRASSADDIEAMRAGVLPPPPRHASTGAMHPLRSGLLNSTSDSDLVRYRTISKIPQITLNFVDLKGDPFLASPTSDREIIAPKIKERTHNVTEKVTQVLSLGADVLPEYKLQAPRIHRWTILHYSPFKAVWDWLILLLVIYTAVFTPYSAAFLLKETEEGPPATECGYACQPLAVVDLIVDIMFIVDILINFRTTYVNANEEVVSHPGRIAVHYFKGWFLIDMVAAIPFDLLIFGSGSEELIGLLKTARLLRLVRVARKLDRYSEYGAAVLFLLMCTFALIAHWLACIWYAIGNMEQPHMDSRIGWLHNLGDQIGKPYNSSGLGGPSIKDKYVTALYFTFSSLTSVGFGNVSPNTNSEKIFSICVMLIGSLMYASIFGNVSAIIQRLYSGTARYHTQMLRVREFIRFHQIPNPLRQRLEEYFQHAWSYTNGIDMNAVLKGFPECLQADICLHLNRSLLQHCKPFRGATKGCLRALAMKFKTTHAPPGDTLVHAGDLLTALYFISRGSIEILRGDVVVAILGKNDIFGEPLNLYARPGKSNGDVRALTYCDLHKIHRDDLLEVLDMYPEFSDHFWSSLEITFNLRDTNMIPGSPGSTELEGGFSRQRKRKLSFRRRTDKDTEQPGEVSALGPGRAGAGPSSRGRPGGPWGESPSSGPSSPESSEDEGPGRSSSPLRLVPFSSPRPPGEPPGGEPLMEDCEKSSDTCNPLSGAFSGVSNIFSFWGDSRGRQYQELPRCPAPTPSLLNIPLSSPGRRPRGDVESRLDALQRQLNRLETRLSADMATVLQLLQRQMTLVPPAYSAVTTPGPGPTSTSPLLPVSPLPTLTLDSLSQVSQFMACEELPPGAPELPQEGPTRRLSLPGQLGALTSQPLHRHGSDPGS
row,Structure (SMILES),"hERG current change (%, negative = inhibition) at 10uM [%]"
1,O=C(O)c1c(C(=O)O)c(-c2ccc(F)cc2)n2c1CCC2,1.97
2,CS(=O)(=O)Nc1ccc(C2=NN(C(=O)c3ccco3)C(c3ccccc3F)C2)cc1 (stereo not shown),-78.2
3,O=C(CNCCc1ccc(F)cc1)Nc1cc(F)ccc1F.O=C(O)C(=O)O,-19.9
4,Cc1ccc2c(c1)C(=NC1CCCCC1)c1cc3ccccc3nc1-2,10.1
5,O=S1(=O)CC2N=C(N(Cc3ccc(F)cc3Cl)c3ccccc3F)SC2C1 (stereo not shown),6.43
6,O=S(=O)(c1cccc(S(=O)(=O)N2CCCC2)c1)N1CCCCC1,-22.2
7,Nc1ccc(S(=O)(=O)NC2(C(F)(F)F)NC(=O)N(c3ccccc3Cl)C2=O)cc1 (stereo not shown),1.42
8,Cc1cc(NC(=O)CSCC(=O)N(c2cccc(Cl)c2)C(C(=O)NC2CCCCC2)c2ccc(O)c(O)c2)no1 (stereo not shown),2.39
9,COc1cc2c(cc1OC)C(C(=O)Nc1ccccc1N1CCN(C)CC1)C1c3ccccc3CCN1C2=O (stereo not shown),-26.7
10,COc1ccc(S(=O)(=O)Nc2ccccc2OC)cc1C,-2.75
11,CCN(CCS(=O)(=O)c1ccc(Cl)cc1)C(=O)Nc1ccccc1,5.64
12,O=C(Nc1ccc(Cl)cc1)c1csc(-c2ccccc2)n1,6.24
13,O=C1C(C=NCCCn2ccnc2)=C(O)c2ccccc21,-8.86
14,O=C(CCc1nnc(C2CCCCC2)o1)N1CCCCC1CCn1cccn1 (stereo not shown),3.65
15,Cc1ccccc1C(=O)Nc1cccc(-c2ccc(N3CCOCC3)nn2)c1,-3.56
16,CN(C)CCNC(=O)Cn1ccc2cc(S(=O)(=O)N3CCCCC3)ccc21,8.47
17,COc1ccc(NC(=O)c2cc(S(=O)(=O)N3CCCCC3)c[nH]2)c(OC)c1,-11.7
18,Cc1c(N(C(=O)CNC(=O)c2ccccc2)C2(C(=O)NC3CCCCC3)CCCCC2)c(=O)n(-c2ccccc2)n1C,-0.641
19,CC(=O)/C=C(/C)NC(Cc1c[nH]c2ccccc12)C(=O)O (stereo not shown) [14727836],0.628
20,CCCc1c(C)c2ccccc2[nH]c1=O,6.28
21,COc1ccc(-n2c(N)c(C#N)c3ccc([N+](=O)[O-])cc3c2=O)cc1,-2.75
22,O=P(O)(CCCP(=O)(O)CCc1ccccc1)CCc1ccccc1,-1.56

row,Structure (SMILES),"hERG current change (%, negative = inhibition) at 10uM [%]"
1,C[C@]12CC[C@H]3[C@@H](CCC4=CC(=O)CC[C@@]43C)[C@@H]1CC[C@@H]2C(=O)CO,-10
2,CCN(CC(=O)Nc1c(F)cccc1F)C(=O)CCCOc1ccc(OC)cc1,-7.58
3,CCC(=O)Nc1nnc(-c2ccccn2)o1,12.7
4,CCN(CC)C(=S)SCC(=O)Nc1nc(-c2ccccc2)c(-c2ccccc2)o1,15.6
5,NCCCC[C@H]1CNC(=O)C(=O)N1CCc1cc(C(F)(F)F)cc(C(F)(F)F)c1,15.8
6,Cc1ccc(-c2nc(N)sc2CC(=O)OCC(=O)NCC2CCCO2)cc1 (stereo not shown),0.809
7,N#C/C(=C\c1ccccc1Cl)C(=O)Nc1ccccn1,12.9
8,Cc1ccc(-n2ncc3c(NCCCN4CCCC4=O)ncnc32)c(C)c1,13.2
9,CCC(C)NC(=O)Nc1ccc(Br)cc1Cl (stereo not shown),15.8
10,C[C@@H](NC(=O)[C@@H]1Cc2ccccc2CN1)C(=O)Nc1ccc2c(c1)OCCO2,3.19
11,COc1cccc(-c2noc(CCC(=O)NC3CCCC3)n2)c1,7.42
12,Nc1nc(OCC(F)(F)F)cc(Oc2ccccc2F)n1,-8.12
13,c1ccc(Cn2cc(CNc3ccccc3)nn2)cc1,9.73
14,COC(=O)[C@H]1[C@H](c2ccccc2)[C@H](C(=O)OC)O[C@H]1c1ccccc1,3.18
15,CCCCNC(=O)CSc1nc2ccccc2c(=O)n1Cc1ccc2c(c1)OCO2,4.77
16,CC(C)n1nnnc1SCC(=O)Nc1ccc2c(c1)OCO2,-4.66
17,COc1ccccc1C(=O)NCCC(=O)N1CCCCC1,20.7
18,CCOC(=O)C1CCN(S(=O)(=O)c2ccc(Cl)nc2)CC1,-2.6
19,COCCC(=O)N1CCC(Oc2ccc(C(=O)NCc3ccon3)cc2)CC1,3.38
20,O=C(C(=O)N1CCc2ccccc2C1)c1cn(CC(=O)N2CCCCC2)c2ccccc12,-14.6
21,O=C(/C=C/c1ccco1)NC(=S)Nc1nc(-c2ccc3ccccc3c2)cs1,1.82
22,CCc1ccc(NC(=O)c2cc(C(C)C)on2)cc1,-27.3

row,Structure (SMILES),"hERG current change (%, negative = inhibition) at 10uM [%]"
1,CN(C[C@H](Cc1ccccc1)N(C[C@@H](Cc1cccc2ccccc12)N(CCc1ccccc1)N=O)N=O)N=O.[Na+],18.9
2,Cc1ccc(C)c(NC(=S)N2CCC(NC(=O)C3CCCCC3)CC2)c1,4.41
3,CCCCOC(=O)CCc1nc2ccccc2[nH]1.Cl,6.35
4,COc1cccc(-c2ncc3ccccc3c2CO)c1,7.31
5,CC1CCC/C(=C\Nc2ccc(C(=O)O)c(O)c2)C1=O (stereo not shown),12.5
6,COc1ccccc1N1CCN(C(CNC(=O)Oc2ccccc2)c2cccnc2)CC1 (stereo not shown),-6.19
7,COCCCNc1cc(C)nc2ccccc12.Cl,-40.3
8,Cc1cccc(NC(=O)CSc2ccc(-c3ccc4c(c3)OCO4)nn2)c1C,-2.26
9,CSCCC(N=C(NS(=O)(=O)c1ccccc1)c1ccccc1)C(=O)O (stereo not shown),9.31
10,Cc1ccc(Cn2cc(S(=O)(=O)c3ccc(C(C)C)cc3)c(=O)c3cc4c(cc32)OCO4)cc1,-8.58
11,CCCCOCCCNC1=NCCCCC1,10.1
12,CCOC(=O)c1cnc(SCC(=O)NCc2cccs2)nc1N,2.83
13,CCCCCCS(=O)[C@H]1CS(=O)(=O)C[C@@H]1S(=O)CCCCCC (stereo partly shown),-66.7
14,CCC(=O)[C@@]1(C)[C@H](C)C[C@H]2[C@@H]3CCC4=CC(=O)C=C[C@]4(C)[C@H]3[C@@H](O)C[C@@]21C,10.2
15,COCCCNC(=O)C(F)(F)C(F)(F)C(=O)NCCCOC,6.49
16,Cc1onc(-c2ccccc2Cl)c1C(=O)N1CCOC12CCCCC2,1.15
17,CCOC(=O)/C=C1\NC(=O)C(C)S1 (stereo not shown),7.75
18,Cl.Clc1ccc(CN2C3=NCCN3c3ccccc32)cc1Cl,-75.9
19,COc1cc(/C=C2/SC(=S)N(Cc3ccccc3)C2=O)ccc1OCC(=O)O,15.9
20,O=c1[nH]c(=S)n(C2CC2)c(O)c1/C=N/Nc1ccccc1,-5.91
21,CCOc1ccc(-c2c(C(=O)N/N=C/c3ccoc3)nnn2-c2nonc2N)cc1,20.5
22,COc1ccc(/C=C/C(=O)OCC(=O)Nc2cc(S(=O)(=O)N(C)C)ccc2Cl)cc1,28.4

row,Structure (SMILES),"hERG current change (%, negative = inhibition) at 10uM [%]"
1,CC(C)C(NS(=O)(=O)c1ccc(Br)s1)C(=O)O (stereo not shown),9.49
2,CCc1nnc(NC(=O)CCC(=O)NCc2ccccc2OC)s1,0.441
3,CCCCCC1CC(CC#CCN2CCOCC2)C(=O)O1.O=C(O)C(=O)O (stereo not shown),-27.6
4,COc1ccc(NC(=O)CN2CCN(S(=O)(=O)N(C)C)CC2)cc1,-4.55
5,COc1ccc(CN(C)CC(=O)NC(C)c2ccccc2)cc1OC (stereo not shown),-17.8
6,O=C(O)c1cn(-c2ccc(F)cc2)c(=O)c2ccccc12,8.87
7,Cc1ccc(C)c(NC(=O)CN(C)C(=O)c2ccccc2OCc2ccccc2Cl)c1,-7.27
8,COc1ccc(/C=N/NC(=O)c2cccc(Br)c2)cc1COc1ccccn1,-17.2
9,Cc1ccn2cc(-c3cccc(NC(=O)c4ccccc4)c3)nc2c1,-19.6
10,CC(OC(=O)c1ccc(-c2ccc(O)cc2)cc1)C(=O)NC1CCCCC1C (stereo not shown),-6.35
11,CSc1ccc(CN(C)C(=O)CSCC(=O)Nc2cc(C)on2)cc1,6.59
12,Cc1cc(C(=O)CSc2nnc(-c3ccc(Cl)cc3)n2C)c(C)n1CC1CCCO1 (stereo not shown),8.08
13,COc1ccc(/C(N)=N/OC(=O)c2ccco2)cc1OC,11.7
14,CCOc1ccccc1N(CC(=O)NC1CCCCC1)C(=O)CCCC(=O)Nc1ccccn1,-7.16
15,O=C1C=C(NCCNc2c(F)c(F)c(CO)c(F)c2F)CCC1,4.27
16,COc1ccc(C(=O)Nc2ccc(NC(=O)c3cccs3)cc2)cc1Cl,27.5
17,CC1=C(C(=O)OC(C)C)C(c2ccc(C)o2)C(C(=O)OC(C)C)=C(C)N1,1.28
18,CCC(C)NC(=O)CC(C)C (stereo not shown),-1.24
19,CS(=O)(=O)c1ccc(NC(=O)C2CCCN(C(=O)c3ccc(Cl)cc3)C2)cc1 (stereo not shown),-47.7
20,COc1ccc(Nc2nc(Cl)nc(Nc3ccc(OC)cc3)n2)cc1,7.06
21,CCc1cc2ccccc2nc1SCC(=O)Nc1cc(C)on1,5.01
22,CSCCC(NS(=O)(=O)c1ccc2ccccc2c1)C(=O)OCC(=O)c1ccc(C(C)C)cc1 (stereo not shown),-1.53
